Measured values taken from the supplement of paper PMC8728848.
This is one part of the list.

How the values were obtained:
Assay in all cases: glycan array binding signal (z-score within array); higher = stronger binding
Conditions in all cases: glycan notation: IUPAC condensed, linker removed
[1] = biological target: GlcNAc(a1-3)Gal(b1-4)GlcNAc
In short: (§1)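 Columns mapping to the same glycan were averaged after glycan names were converted to IUPAC-condensed notation. The data come from 3228 arrays in the Consortium for Functional Glycomics database, limited to those with an available protein sequence. Binding is reported as a within-array Z-score averaged across arrays of one protein sequence and across linkers.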

[2] = biological target: GlcNAc(a1-6)Gal(b1-4)GlcNAc
In short: as §1

[3] = biological target: GlcNAc(b1-2)Gal(b1-3)GalNAc
In short: as §1

[4] = biological target: GlcNAc(b1-2)Man(a1-3)[GlcNAc(b1-2)Man(a1-6)]Man(b1-4)GlcNAc(b1-4)GlcNAc
In short: as §1

GlcNAc(b1-3)Gal = biological target: GlcNAc(b1-3)Gal
In short: as §1

[5] = biological target: GlcNAc(b1-3)Gal(b1-3)GalNAc
In short: as §1

GlcNAc(b1-3)Gal(b1-4)Glc = biological target: GlcNAc(b1-3)Gal(b1-4)Glc
In short: as §1

[6] = biological target: GlcNAc(b1-3)Gal(b1-4)GlcNAc
In short: as §1

[7] = biological target: GlcNAc(b1-3)Gal(b1-4)GlcNAc(b1-3)Gal(b1-4)GlcNAc
In short: as §1

GlcNAc(b1-3)GalNAc = biological target: GlcNAc(b1-3)GalNAc
In short: as §1

[8] = biological target: GlcNAc(b1-3)[GlcNAc(b1-6)]Gal(b1-4)GlcNAc
In short: as §1

[9] = biological target: GlcNAc(b1-3)[GlcNAc(b1-6)]GalNAc
In short: as §1

[10] = biological target: GlcNAc(b1-3)[GlcNAc(b1-6)]GlcNAc(b1-4)GlcNAc
In short: as §1

[11] = biological target: GlcNAc(b1-4)Gal(b1-4)GlcNAc
In short: as §1

[12] = biological target: GlcNAc(b1-4)GlcNAc(b1-4)GlcNAc
In short: as §1

[13] = biological target: GlcNAc(b1-4)GlcNAc(b1-4)GlcNAc(b1-4)GlcNAc(b1-4)GlcNAc
In short: as §1

[14] = biological target: GlcNAc(b1-4)GlcNAc(b1-4)GlcNAc(b1-4)GlcNAc(b1-4)GlcNAc(b1-4)GlcNAc
In short: as §1

[15] = biological target: GlcNAc(b1-4)[GlcNAc(b1-6)]GalNAc
In short: as §1

[16] = biological target: GlcNAc(b1-6)Gal(b1-4)GlcNAc
In short: as §1

GlcNAc(b1-6)GalNAc = biological target: GlcNAc(b1-6)GalNAc
In short: as §1

Kdn(a2-3)Gal(b1-3)GlcNAc = biological target: Kdn(a2-3)Gal(b1-3)GlcNAc
In short: as §1

Kdn(a2-3)Gal(b1-4)GlcNAc = biological target: Kdn(a2-3)Gal(b1-4)GlcNAc
In short: as §1

[17] = biological target: Man(a1-2)Man(a1-2)Man(a1-3)Man
In short: as §1

[18] = biological target: Man(a1-2)Man(a1-2)Man(a1-6)[Man(a1-3)]Man
In short: as §1

Man(a1-2)Man(a1-3)Man = biological target: Man(a1-2)Man(a1-3)Man
In short: as §1

[19] = biological target: Man(a1-2)Man(a1-3)[Man(a1-2)Man(a1-6)]Man
In short: as §1

[20] = biological target: Man(a1-2)Man(a1-3)[Man(a1-2)Man(a1-6)]Man(a1-6)[Man(a1-2)Man(a1-2)Man(a1-3)]Man(b1-4)GlcNAc(b1-4)GlcNAc
In short: as §1

[21] = biological target: Man(a1-2)Man(a1-3)[Man(a1-6)]Man(a1-6)[Man(a1-2)Man(a1-3)]Man(b1-4)GlcNAc(b1-4)GlcNAc
In short: as §1

[22] = biological target: Man(a1-2)Man(a1-6)[Man(a1-3)]Man(a1-6)[Man(a1-2)Man(a1-2)Man(a1-3)]Man(b1-4)GlcNAc(b1-4)GlcNAc
In short: as §1

Man(a1-3)[Man(a1-6)]Man = biological target: Man(a1-3)[Man(a1-6)]Man
In short: as §1

[23] = biological target: Man(a1-3)[Man(a1-6)]Man(a1-6)[Man(a1-2)Man(a1-3)]Man(b1-4)GlcNAc(b1-4)GlcNAc
In short: as §1

[24] = biological target: Man(a1-3)[Man(a1-6)]Man(a1-6)[Man(a1-3)]Man(b1-4)GlcNAc(b1-4)GlcNAc
In short: as §1

[25] = biological target: Man(a1-3)[Man(a1-6)]Man(b1-4)GlcNAc(b1-4)GlcNAc
In short: as §1

Man(b1-4)GlcNAc = biological target: Man(b1-4)GlcNAc
In short: as §1

Neu5Ac(a2-3)Gal = biological target: Neu5Ac(a2-3)Gal
In short: as §1

[26] = biological target: Neu5Ac(a2-3)Gal(b1-3)GalNAc
In short: as §1

[27] = biological target: Neu5Ac(a2-3)Gal(b1-3)GalNAc(b1-3)Gal(a1-4)Gal(b1-4)Glc
In short: as §1

B1: FaeGac (Escherichia coli) (protein)
chain: WMTGDFNGSVDIGGSITADDYRQKWEWKVGTGLNGFGNVLNDLTNGGTKLTITVTGNKPILLGRTKEAFATPVTGGVDGIPHIAFTDYEGASVVLRKPDGETNKNGLAYFVLPMKNAGGTKVGSVKVNASYAGVLGRGGVTSADGELLSLFADGLSSIFYGGLPRGSELSAGSAAAARTKLFGSLSRDDILGQIQRVNANVTSLVDVAGSYRENMEYTDGNVVSAAYALGIANGQTIEATFNQAVTTSTQWSAPLNVAITYY
**Q.** What does the source list for B1?
**A.** glycan array binding signal (z-score) [1]: 0.229; glycan array binding signal (z-score) [2]: 0.581; glycan array binding signal (z-score) [3]: 0.196; glycan array binding signal (z-score) [4]: -0.345; glycan array binding signal (z-score) (GlcNAc(b1-3)Gal): -0.133; glycan array binding signal (z-score) [5]: -0.429; glycan array binding signal (z-score) (GlcNAc(b1-3)Gal(b1-4)Glc): -0.621; glycan array binding signal (z-score) [6]: -0.743; glycan array binding signal (z-score) [7]: -0.716; glycan array binding signal (z-score) (GlcNAc(b1-3)GalNAc): 0.451; glycan array binding signal (z-score) [8]: -0.533; glycan array binding signal (z-score) [9]: 0.89; glycan array binding signal (z-score) [10]: -0.614; glycan array binding signal (z-score) [11]: 0.012; glycan array binding signal (z-score) [12]: 0.042; glycan array binding signal (z-score) [13]: -0.377; glycan array binding signal (z-score) [14]: -0.635; glycan array binding signal (z-score) [15]: 0.219; glycan array binding signal (z-score) [16]: 1.37; glycan array binding signal (z-score) (GlcNAc(b1-6)GalNAc): -0.127; glycan array binding signal (z-score) (Kdn(a2-3)Gal(b1-3)GlcNAc): -0.579; glycan array binding signal (z-score) (Kdn(a2-3)Gal(b1-4)GlcNAc): -0.204; glycan array binding signal (z-score) [17]: -0.088; glycan array binding signal (z-score) [18]: 3.1; glycan array binding signal (z-score) (Man(a1-2)Man(a1-3)Man): -0.607; glycan array binding signal (z-score) [19]: 0.358; glycan array binding signal (z-score) [20]: -0.36; glycan array binding signal (z-score) [21]: 0.527; glycan array binding signal (z-score) [22]: 0.752; glycan array binding signal (z-score) (Man(a1-3)[Man(a1-6)]Man): -0.141; glycan array binding signal (z-score) [23]: 1.42; glycan array binding signal (z-score) [24]: 0.136; glycan array binding signal (z-score) [25]: 0.303; glycan array binding signal (z-score) (Man(b1-4)GlcNAc): -0.784; glycan array binding signal (z-score) (Neu5Ac(a2-3)Gal): -0.855; glycan array binding signal (z-score) [26]: -0.785; glycan array binding signal (z-score) [27]: -0.317
